# Measured values published in the supplement of paper PMC10369915.
# Some of the results follow. Rule as the data show it: active = 3.2 or more and inactive = the rest. Only a few entries rise above the background.
# B1: PRKCG_Y529_P524R (peptide)
# chain: REIIAYQPYGK
# B2: PRKCI_Y125 (peptide)
# chain: EDKSIYRRGAR
# B3: PRKCI_Y125_R130C (peptide)
# chain: EDKSIYRRGAC
# B4: PRKCI_Y430 (peptide)
# chain: LRGEDYGFSVD
# B5: PRKCZ_Y263 (peptide)
# chain: IGRGSYAKVLL
# B6: PRKDC_Y647_F649L (peptide)
# chain: FEPWVYSLSYE
# B7: PRKDC_Y647_YF (peptide)
# chain: FEPWVYSFSFE
# B8: PRKG1_Y247_I249V (peptide)
# chain: YENGEYIVRQG
# B9: PRKN_Y391_D394N (peptide)
# chain: TTTQAYRVNER
# B10: PRKRIP1_Y90 (peptide)
# chain: LRRREYQRQDY
# B11: PROS1_Y259_N258S (peptide)
# chain: QLCVSYPGGYT
# B12: PROS1_Y266_C267S (peptide)
# chain: GGYTCYSDGKK
# B13: PROS1_Y266_YF (peptide)
# chain: GGFTCYCDGKK
# B14: PSEN1_Y154 (peptide)
# chain: LLVVLYKYRCY
# B15: PSEN1_Y154_Y154C_YF (peptide)
# chain: LLVVLCKFRCF
# B16: PSEN1_Y154_Y159F_YF (peptide)
# chain: LLVVLYKFRCF
# B17: PSEN1_Y240_L235V (peptide)
# chain: VVFIKYLPEWT
# B18: PSEN1_Y256 (peptide)
# chain: AVISVYDLVAV
# Molecular target: SHP2 C-SH2 domain E139D
# Test: enrichment score (SH2-bound / input frequency) (ratio); bacterial display of known human phosphotyrosine sites (pTyr-Var adds point mutants) read by sequencing; higher = stronger binding; tyrosines were phosphorylated by kinases first
# Settings: peptide library: pTyr-Var
# 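Also: displayed peptides selected on beads carrying the immobilized SH2 domain, with library peptides lacking any tyrosine serving as negative controls.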
row,Binder,enrichment score
1,B1,inactive: 0.857
2,B2,inactive: 0.38
3,B3,inactive: 0.422
4,B4,inactive: 0.816
5,B5,inactive: 1.91
6,B6,inactive: 0.818
7,B7,inactive: 1.05
8,B8,inactive: 2.33
9,B9,inactive: 0.658
10,B10,inactive: 0.316
11,B11,inactive: 0.766
12,B12,inactive: 0.895
13,B13,inactive: 1.35
14,B14,inactive: 2.89
15,B15,inactive: 2.4
16,B16,inactive: 2.68
17,B17,active: 3.75
18,B18,inactive: 1.5

# Molecular target: SHP2 C-SH2 domain wild-type
# Test: as above
# Settings: peptide library: pTyr-Var
row,Binder,enrichment score
1,B1,inactive: 0.995
2,B2,inactive: 0.256
3,B3,inactive: 0.486
4,B4,inactive: 0.975
5,B5,active: 4.15
6,B6,inactive: 0.733
7,B7,inactive: 0.994
8,B8,inactive: 1.76
9,B9,inactive: 0.518
10,B10,inactive: 0.261
11,B11,inactive: 1.1
12,B12,inactive: 1.41
13,B13,inactive: 1.53
14,B14,inactive: 2.95
15,B15,inactive: 2.63
16,B16,inactive: 2.27
17,B17,active: 4.32
18,B18,inactive: 1.67

# Molecular target: SHP2 N-SH2 domain L43F
# Test: as above
# Settings: peptide library: pTyr-Var
row,Binder,enrichment score
1,B1,inactive: 0.805
2,B2,inactive: 0.204
3,B3,inactive: 0.473
4,B4,inactive: 0.865
5,B5,inactive: 2.33
6,B6,inactive: 1.29
7,B7,inactive: 1.37
8,B8,inactive: 2.26
9,B9,inactive: 0.561
10,B10,inactive: 0.324
11,B11,inactive: 0.894
12,B12,inactive: 0.983
13,B13,inactive: 1.29
14,B14,inactive: 2.39
15,B15,inactive: 2.43
16,B16,inactive: 1.78
17,B17,active: 3.63
18,B18,inactive: 1.86

# Molecular target: SHP2 N-SH2 domain T42A
# Test: as above
# Settings: peptide library: pTyr-Var
row,Binder,enrichment score
1,B1,inactive: 0.775
2,B2,inactive: 0.239
3,B3,inactive: 0.437
4,B4,inactive: 0.6
5,B5,active: 4.06
6,B6,inactive: 0.867
7,B7,inactive: 1.22
8,B8,inactive: 2.07
9,B9,inactive: 0.523
10,B10,inactive: 0.347
11,B11,inactive: 0.7
12,B12,inactive: 0.88
13,B13,inactive: 1.01
14,B14,inactive: 1.75
15,B15,inactive: 1.81
16,B16,inactive: 1.97
17,B17,active: 3.37
18,B18,inactive: 1.57

# Molecular target: SHP2 N-SH2 domain T52S
# Test: as above
# Settings: peptide library: pTyr-Var
row,Binder,enrichment score
1,B1,inactive: 0.724
2,B2,inactive: 0.218
3,B3,inactive: 0.499
4,B4,inactive: 0.766
5,B5,inactive: 2.37
6,B6,inactive: 1.39
7,B7,inactive: 1.16
8,B8,inactive: 2.45
9,B9,inactive: 0.552
10,B10,inactive: 0.371
11,B11,inactive: 0.716
12,B12,inactive: 1.07
13,B13,inactive: 1.04
14,B14,active: 3.96
15,B15,inactive: 2.32
16,B16,inactive: 2.17
17,B17,active: 3.78
18,B18,inactive: 2

# Molecular target: SHP2 N-SH2 domain wild-type
# Test: as above
# Settings: peptide library: pTyr-Var
row,Binder,enrichment score
1,B1,inactive: 0.781
2,B2,inactive: 0.231
3,B3,inactive: 0.562
4,B4,inactive: 1.04
5,B5,inactive: 1.22
6,B6,inactive: 0.776
7,B7,inactive: 1.54
8,B8,inactive: 2.32
9,B9,inactive: 0.787
10,B10,inactive: 0.313
11,B11,inactive: 0.941
12,B12,inactive: 1.12
13,B13,inactive: 1.47
14,B14,inactive: 2.74
15,B15,inactive: 2.52
16,B16,inactive: 2.12
17,B17,active: 4.32
18,B18,inactive: 1.78
